# Results reported in PubChem BioAssay AID504332 (National Center for Advancing Translational Sciences (NCATS), 2011).
# About 31,000 (8.9%) of roughly 350,000 compounds were called active. Inconclusive means that the source gave no clear call. Such entries were picked first, then a sample of the others. Calls follow the shape of the dose curve; as a rule, active = well fitted inhibition curve with a large enough effect; inconclusive = small, poorly fitted or top-dose-only effect; inactive = no such curve, though single readings can be large or run the other way. Where the call is inconclusive, the potency comes from a doubtful curve fit.
# Target: Histone-lysine N-methyltransferase EHMT2 (Homo sapiens) (UniProt Q96KQ7)
# UniProt Q96KQ7, sequence (Q96KQ7 whole entry, looked up): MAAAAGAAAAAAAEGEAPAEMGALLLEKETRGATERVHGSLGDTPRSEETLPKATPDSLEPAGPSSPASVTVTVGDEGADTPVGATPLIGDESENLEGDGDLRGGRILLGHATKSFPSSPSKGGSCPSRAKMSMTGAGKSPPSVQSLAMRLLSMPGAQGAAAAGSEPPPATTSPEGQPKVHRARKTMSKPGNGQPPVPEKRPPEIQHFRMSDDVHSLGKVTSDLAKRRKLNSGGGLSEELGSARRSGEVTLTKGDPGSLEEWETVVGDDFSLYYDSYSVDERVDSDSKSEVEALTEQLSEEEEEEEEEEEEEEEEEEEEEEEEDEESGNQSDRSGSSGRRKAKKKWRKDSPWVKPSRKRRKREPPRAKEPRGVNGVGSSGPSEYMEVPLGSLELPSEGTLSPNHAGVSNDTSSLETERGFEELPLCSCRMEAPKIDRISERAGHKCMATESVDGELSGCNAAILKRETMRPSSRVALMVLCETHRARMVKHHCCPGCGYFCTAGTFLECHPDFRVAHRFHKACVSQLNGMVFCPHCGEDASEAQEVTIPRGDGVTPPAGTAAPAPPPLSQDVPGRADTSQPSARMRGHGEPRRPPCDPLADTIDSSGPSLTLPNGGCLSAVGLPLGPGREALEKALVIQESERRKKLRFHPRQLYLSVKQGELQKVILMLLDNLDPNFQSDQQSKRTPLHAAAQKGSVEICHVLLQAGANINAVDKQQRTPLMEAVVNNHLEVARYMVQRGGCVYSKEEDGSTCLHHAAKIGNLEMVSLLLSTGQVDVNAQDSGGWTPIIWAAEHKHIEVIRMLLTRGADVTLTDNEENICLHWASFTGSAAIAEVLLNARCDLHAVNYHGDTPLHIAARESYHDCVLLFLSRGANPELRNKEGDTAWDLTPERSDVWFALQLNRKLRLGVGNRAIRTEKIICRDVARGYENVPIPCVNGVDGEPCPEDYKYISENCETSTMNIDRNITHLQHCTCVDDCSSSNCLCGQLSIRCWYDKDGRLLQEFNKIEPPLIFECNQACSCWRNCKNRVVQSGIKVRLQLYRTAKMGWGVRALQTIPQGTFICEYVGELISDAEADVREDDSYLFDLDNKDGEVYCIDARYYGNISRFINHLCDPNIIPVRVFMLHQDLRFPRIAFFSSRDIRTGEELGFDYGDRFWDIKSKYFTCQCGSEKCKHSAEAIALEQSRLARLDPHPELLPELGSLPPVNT
# Assay: qHTS Assay for Inhibitors of Histone Lysine Methyltransferase G9a; also: nearly all actives have a fitted effect of over 75% in size
# Details: G9a H3K9 monomethylation, AlphaScreen, 2 h; activity, negative = inhibition: at 59 µM (top of the series) unless noted
# Description: Methylated lysines, on the N-terminal tails of histone proteins serve as epigenetic markers to recruit factors that can then modify local chromatin structure to lead to functional consequences. G9a and other members of the SUV39 family of the SET domain-containing superfamily of histone lysine methyltransferases (HMT) have been identified to specifically methylate Lys9 of histone H3 (H3K9). G9a catalyzes the mono- and di-methylation of H3K9 in mammalian euchromatic regions, where the resulting H3K9me2 is indicative of transcriptional repression. […] The inhibition of G9a will result in transcriptional activation and work synergistically with DNA methyltransferase and histone deacetylase inhibitors, to kill cancer cells. This qHTS assay for identification of G9a inhibitors is a chemiluminescence based AlphaScreen (PerkinElmer). Methylation of biotinylated-histone peptide is measured through specific antibody-based detection, in conjunction with streptavidin-coated donor and anti-IgG antibody-coated acceptor beads. The method is particularly well suited for detection of inhibitors acting by the desired histone peptide competitive mechanism and is applicable to testing other HMTs. Although AlphaScreen has significant advantages with its utility in a variety of epigenetic target assays, the primary screening data provided in this deposition should be used with caution due to the prevalence of screening artifacts. An AlphaScreen counterscreen is highly recommended to be run against any putative actives to eliminate non specific artifacts. Alternatively, one can use other AlphaScreen assays in PubChem to filter out promiscuous hits. Quinn et al. A chemiluminescence-based method for identification of histone lysine methyltransferase inhibitors. Mol Biosyst 6(5): 782-8. 2010. PMID: 20567762 [2] Baell,Holloway. New substructure filters for removal of pan assay interference compounds (PAINS) from screening libraries and for their exclusion in bioassays. J Med Chem. 53(7):2719-40. 2010. PMID: 20131845 NIH Molecular Libraries Probe Production Network [MLPCN] NIH Chemical Genomics Center [NCGC] Structural Genomics Consortium (SGC) NIH Grant: 5U54 MH084681-02
# To each well of a 1,536w plate, 2ul of HMT enzyme (final 20nM) were added, using a nanoliter dispenser. The G9a- and GLP-inhibitor BIX-01294 (CID: 25150857) are used as an intraplate control, with a 16-point titration in duplicate. A Kalypsys pin-tool transferred 23nl of library compound solution in DMSO to each well. Following a 15 min incubation of enzyme with compounds at room temperature, 1ul mixture of b-H3K9 peptide substrate (final 500nM) and SAM cofactor (final 20uM) were added. Reactions were allowed to proceed at room temperature for 2 hours. Methylated b-H3K9 peptide product was detected with 0.5 ug/mL rabbit polyclonal anti-monomethyl histone H3K9 antibody (Abcam Inc., Cambridge, MA) and 20 ug/mL each streptavidin-coated donor and anti-rabbit IgG acceptor AlphaScreen beads. Antibody and beads were added in a 1ul dispense, for a final volume of 4ul, and plates were incubated, protected from the light, for 10 min at room temperature. Microplates were then read on an EnVision multilabel plate reader using the 1,536 plate HTS AlphaScreen aperture (excitation time 80 ms, measurement time 240 ms).
# % is scaled to controls: 0 for no effect and ±100 for the full control effect; potency is read from the fitted curve at half-maximal effect; tags tell the direction and shape of the fitted curve.
SMILES,"activity, negative = inhibition",Potency
COc1ccc(C2C(C#N)=C(N)Oc3n[nH]c(C)c32)cc1CN1CCN(c2ccc(F)cc2)CC1 (stereo not given),inconclusive: -60.4% [inhibitor],–
CC(C)N(C(=O)COC(=O)c1cccc(N(C)C)c1)c1ccccc1,–,"inconclusive: 89.1 µM [inhibitor, single point]"
c1ccc(-c2nc(-n3ccnc3)nc(-n3ccnc3)n2)cc1,–,"inconclusive: 3.55 µM [inhibitor, partial curve, poor fit]"
COc1cc(C(=O)O/N=C2\CCCc3c2ccc(OC)c3[N+](=O)[O-])cc(OC)c1OC,–,"inconclusive: 79.4 µM [inhibitor, single point]"
O=C(CSc1ccc(-c2ccco2)nn1)NC1CCCC1,–,"inconclusive: 50.1 µM [inhibitor, partial curve, poor fit]"
COc1ccc(-c2c(=O)n(OCc3ccccn3)c3ccccc3[n+]2[O-])cc1OC,–,"inconclusive: 3.55 µM [inhibitor, full curve, poor fit]"
CCOC(=O)c1c(NC(=O)CSc2nc3ccccc3[nH]2)sc2c1CC(C)(C)NC2(C)C,–,active: 39.8 µM
O=[N+]([O-])c1cc(S(=O)(=O)N2CCCC2)ccc1NN=C1CCCCC1,inactive: 3.55%,–
Cc1cccc(-c2nnc(SCc3nc4ccccc4[nH]3)n2Cc2ccco2)c1,–,active: 50.1 µM
O=[N+]([O-])c1ccc(C(O)CN=Cc2ccc(O)cc2O)cc1 (stereo not given),–,"inconclusive: 5.01 µM [inhibitor, full curve, poor fit]"
O=C(C1CCCCC1)N(CCN1CCCC1)c1nc2ccccc2s1,–,"inconclusive: 39.8 µM [inhibitor, single point]"
C/C(=N\NC(=O)c1ccc(NS(=O)(=O)c2cccs2)cc1)c1ccccc1,–,"inconclusive: 7.08 µM [inhibitor, single point]"
CCN1CCN(S(=O)(=O)c2ccc(Cl)c(C(=O)Nc3ccccc3N3CCCC3)c2)CC1,inactive: 24.2% [at 0.501 µM],–
CCCCCn1nnc2c(=O)oc3ccccc3c21,inactive: 29% [at 102 µM],–
CCN(CC)S(=O)(=O)c1cc(NC(=O)CSc2nc3c(cc2C#N)C(=O)CC(C)(C)C3)ccc1C,inactive: 4.15%,–
O=C(Nc1ccc(F)cc1)C(Sc1nc2ccccc2[nH]1)c1ccccc1 (stereo not given),–,"inconclusive: 15.8 µM [inhibitor, single point]"
Cc1cccc(NCC(=O)NNC(=S)Nc2ccccc2)c1,–,active: 31.6 µM
O=C(O)c1cccc(NC(=O)c2ccc(N3C(=O)c4ccc(C(=O)Nc5cccc(C(=O)O)c5)cc4C3=O)cc2)c1,inactive: 0.693% [at 102 µM],–

SMILES,"activity, negative = inhibition",Potency
Cc1nc(C)c(C(=O)Nc2cccc(F)c2)s1,inactive: 3.21% [at 102 µM],–
Nn1cc(-c2ccccc2)nc1SCC(=O)Nc1ccc(S(N)(=O)=O)cc1,–,"inconclusive: 50.1 µM [inhibitor, partial curve]"
CC(C)C(NS(=O)(=O)c1cccc2nsnc12)C(=O)N1CCCCC1 (stereo not given),inactive: -2.15% [at 102 µM],–
CCCCN(CC)C(=O)CSc1nc2c(sc(=S)n2-c2ccc(OCC)cc2)c(=O)[nH]1,–,"inconclusive: 70.8 µM [inhibitor, single point]"
O=C(CSc1n[nH]c(-c2ccccn2)n1)Nc1ccccc1F,inactive: 29.1% [at 102 µM],–
CC(NC(=O)c1ccc(Cl)cc1)C(=O)N1CCCCC1 (stereo not given),–,"inconclusive: 100 µM [inhibitor, single point]"
CCOC(=O)N(C)OC(=O)Nc1ccc(Cl)c(Cl)c1,–,"inconclusive: 28.2 µM [inhibitor, single point]"
Cc1ccc(-n2c(=O)c3c(c4cc(C)ccc4n3C)n(CC(=O)NCCC3=CCCCC3)c2=O)cc1,inactive: -13.4%,–
O=C(COC(=O)c1ccc(C(F)(F)F)cc1)Nc1cccc(S(=O)(=O)N2CCCCC2)c1,–,active: 10 µM
Cc1ccc(Cc2nc3ccccc3nc2SCC(=O)N2CCCCC2)cc1,inactive: 7.85%,–
CC(C)(C)C(=O)Nc1ccc(C(=O)CSc2nnc(C3CC3)n2C2CC2)cc1,–,"inconclusive: 22.4 µM [inhibitor, single point]"
Cc1nc(C)c(CCNS(=O)(=O)c2ccc(C)c(C)c2)s1,inactive: -0.22%,–
CCOc1ccccc1NC(=O)c1c(NCc2ccc(C)o2)sc2c1CCCCC2,–,active: 5.01 µM
CCCOc1ccc(C2=CSC3=NCCN23)cc1,inactive: -15.3% [at 102 µM],–
Cc1ccc([N+](=O)[O-])cc1-c1ccc(/C=N/NC(=O)CN2CCOCC2)o1,–,"inconclusive: 25.1 µM [inhibitor, single point]"
Cc1cc(O)ccc1Nc1nc2ccccc2nc1Nc1ccc(O)cc1C,–,active: 4.47 µM
Cc1ccc(CNC(=O)Cc2csc(Nc3nc(=S)[nH]c4ccccc34)n2)cc1,–,"inconclusive: 5.01 µM [inhibitor, partial curve, poor fit]"
